The source of these data is PubChem BioAssay (NCATS).

A short description of this assay: qHTS Assay for Lipid Storage Modulators (AID 1519). The conditions noted are these: Drosophila S3 cells, BODIPY lipid droplet/cell ratio, laser cytometry, cells loaded with oleic acid. An outline of the steps: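 Cells seeded at 5,000 per well were treated with compounds over a concentration series and loaded with oleic acid (400 uM, as added). Lipid droplet fluorescence (488 nm excitation, 500-530 nm channel) was read by laser-scanning cytometry and normalized to 20 uM Triacsin C.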
In general terms: Quantitative high-throughput screening tests each substance at several concentrations.

[1] abbreviates: measured here: cell count channel max response.
Where [2] appears, read: measured here: cell number channel AC50.
[3] abbreviates: measured here: lipid (BODIPY) channel AC50.
Where [4] appears, read: measured here: lipid channel max response.

The list shows a part of the results. Further columns of the screen follow, without active or inactive calls. Compounds called inactive in the main read-out are mostly missing here. Potencies come from curve fits of mixed quality, noted in brackets.
Tags describe the fitted curve by direction and shape.

Consider `Cn1ccc2cc(NC(=O)Nc3cccnc3)ccc21`, for which the max response was determined as 114% under setting [1] and 155% under setting [4]. Also, the AC50 (commonly the midpoint of the concentration-response curve, whichever way the signal moves) is 2510 nM [rising, partial curve] under setting [2] and 1780 nM [rising, full curve] under setting [3].

For the molecule `N#Cc1cccc(-c2nccc(NCc3cccnc3)n2)c1`, the max response was 40% under setting [1] and 46% under setting [4]. Further, the AC50 reads like this: under setting [2], 355 nM [rising, full curve]; under setting [3], 355 nM [rising, full curve].

On to `COc1ccc2[nH]cc(CCNc3ncnc4ccc(-c5ccoc5)cc34)c2c1`, for which the max response under setting [1] is 14.9% and the max response under setting [4] was determined as 15.7%. Besides, the AC50 under setting [2] is 10 nM [rising, full curve] and the AC50 under setting [3] was 8.91 nM [rising, full curve].

Turning to `COc1ccc(CNc2ccnc(-c3c(C)noc3C)n2)c(OC)c1`, the max response is, setting by setting: under setting [1], 4.98%; under setting [4], 11.6%. Moreover, the AC50 is 1000 nM [rising, partial curve] under setting [2] and 1000 nM [rising, partial curve] under setting [3].

In the case of `COc1cccc(Cn2c(=O)c(CCc3ccccc3)nc3cncnc32)c1`, the max response is 34.5% under setting [1] and 43.8% under setting [4]. In addition, the concentration at half-maximal activity (AC50) under setting [2] is 1780 nM [rising, partial curve] and the AC50 under setting [3] is 1260 nM [rising, partial curve].

Consider `O=C(c1ccc(F)cc1)C1CCN(CCn2c(=S)[nH]c3ccccc3c2=O)CC1`, for which the max response under setting [1] turned out to be 81.4% and the max response under setting [4] turned out to be 99.1%. In addition, the half-maximal activity concentration (AC50) by setting is: under setting [2], 22400 nM [rising, partial curve]; under setting [3], 28200 nM [rising, partial curve].

Take `CC1=CC(=O)C2=C(C)CCC3C(C)C(=O)OC3C12` (centres undefined): the max response turned out to be 134% under setting [1] and 186% under setting [4]. The concentration at half-maximal activity (AC50) is 35500 nM [rising, partial curve, poor fit] under setting [2] and 31600 nM [rising, partial curve, poor fit] under setting [3].

Take `c1cncc(-c2cncnc2NCc2cccs2)c1`: the max response under setting [1] came out at 35.3% and the max response under setting [4] amounted to 40.8%. The AC50 by setting is: under setting [2], 3550 nM [rising, full curve, poor fit]; under setting [3], 12600 nM [rising, partial curve].

Take `CN(Cc1ccco1)c1ccnc(-c2cccnc2)n1`: the max response stood at 39% under setting [1] and 45.2% under setting [4]. The half-maximal activity concentration (AC50) under setting [2] was 6310 nM [rising, full curve] and the AC50 under setting [3] was 4470 nM [rising, full curve].

As to `CS(=O)(=O)Nc1cccc(-c2nc(-n3ccnc3)c3ccccc3n2)c1`, the max response is, setting by setting: under setting [1], 30.5%; under setting [4], 36.5%. Moreover, the AC50 runs as follows: under setting [2], 794 nM [rising, full curve, poor fit]; under setting [3], 2240 nM [rising, full curve, poor fit].

For `O=[N+]([O-])c1cccc2c[nH]nc12`, the max response under setting [1] turned out to be 99.6% and the max response under setting [4] stood at 131%. The half-maximal activity concentration (AC50) is 15800 nM [rising, partial curve, poor fit] under setting [2] and 14100 nM [rising, partial curve, poor fit] under setting [3].

Turning to `COc1ccc(CNc2ncncc2-c2c(C)noc2C)c(OC)c1`, the max response runs as follows: under setting [1], 30.4%; under setting [4], 38.5%. Also, the AC50 under setting [2] was 12600 nM [rising, partial curve, poor fit] and the AC50 under setting [3] was 15800 nM [rising, partial curve, poor fit].

`NC(N)=NC(N)=Nc1ccccc1`: the max response under setting [1] is -59.2% and the max response under setting [4] is -65.1%. For the same molecule, the AC50 was 12600 nM [falling, partial curve, poor fit] under setting [2] and 12600 nM [falling, partial curve, poor fit] under setting [3].

For `O=S(=O)(c1ccccc1)N1CCC2(CCN(Cc3ccncc3)CC2)CC1`, the max response reads like this: under setting [1], 17%; under setting [4], 25.4%. The AC50 under setting [2] is 3160 nM [rising, partial curve] and the AC50 under setting [3] was 1780 nM [rising, full curve, poor fit].

Take `C=CCN1CCN(c2nc3ccccc3nc2C#N)CC1`: the max response under setting [1] is 113% and the max response under setting [4] was 153%. In addition, the AC50 is 15800 nM [rising, partial curve] under setting [2] and 17800 nM [rising, partial curve] under setting [3].

As to `O=C(c1cccc(F)c1)N1CCC2(CC1)CN(c1ccc(-c3ccccc3)cc1)C2`, the max response by setting is: under setting [1], -38%; under setting [4], -78%. Also, the AC50 by setting is: under setting [2], 39800 nM [falling, single point]; under setting [3], 39800 nM [falling, single point].

As for `COc1cc2c(cc1OC)C(c1ccccc1)CN(C)CC2` (centres undefined), the max response stood at 49.8% under setting [1] and 49.6% under setting [4]. Moreover, the AC50 is, setting by setting: under setting [2], 39800 nM [rising, single point]; under setting [3], 39800 nM [rising, single point].

`COc1ccc2[nH]cc(CCNc3ncncc3-c3cccc(C#N)c3)c2c1`: the max response runs as follows: under setting [1], 22.1%; under setting [4], 23.8%. In addition, the concentration at half-maximal activity (AC50) under setting [2] was 100 nM [rising, full curve, poor fit] and the AC50 under setting [3] is 126 nM [rising, full curve, poor fit].

In the case of `Cc1cccc(-c2cc(=O)c3cc(Br)ccc3o2)c1`, the max response reads like this: under setting [1], 114%; under setting [4], 147%. In addition, the AC50 is 2240 nM [rising, full curve] under setting [2] and 2240 nM [rising, full curve] under setting [3].

For `COc1ccc(CNc2ncncc2-c2ccc(C(=O)N(C)C)cc2)c(OC)c1`, the max response under setting [1] turned out to be 28.3% and the max response under setting [4] was determined as 38.2%. Besides, the AC50 runs as follows: under setting [2], 891 nM [rising, full curve]; under setting [3], 891 nM [rising, full curve].

As for `COc1cccc(-c2nccc(N(C)Cc3ccco3)n2)c1`, the max response reads like this: under setting [1], 32%; under setting [4], 38.6%. For the same molecule, the AC50 reads like this: under setting [2], 2240 nM [rising, full curve, poor fit]; under setting [3], 2000 nM [rising, full curve, poor fit].
